Results: PubChem BioAssay AID504333 (National Center for Advancing Translational Sciences (NCATS), 2011)
Out of some 360,000 compounds screened, about 16,000 (4.4%) were called active. Inconclusive means that the source gave no clear call. Such entries were picked first, then a sample of the others. Calls come from the whole dose curve; as a rule, active = well fitted inhibition curve with a large enough effect; inconclusive = small, poorly fitted or top-dose-only effect; inactive = no such curve, though single readings can be large or run the other way. Potencies beside an inconclusive call are fits to weak or partial responses and may not hold up.

Each molecule was assayed against Bromodomain adjacent to zinc finger domain protein 2B (Homo sapiens) (UniProt Q9UIF8) (assay: qHTS Assay for Inhibitors of BAZ2B). Details: AlphaScreen BAZ2B-H3K14Ac peptide displacement; activity change, negative = inhibition: at 114 µM (top of the series).
UniProt Q9UIF8, sequence (Q9UIF8 whole entry, looked up, the tested form may be a part): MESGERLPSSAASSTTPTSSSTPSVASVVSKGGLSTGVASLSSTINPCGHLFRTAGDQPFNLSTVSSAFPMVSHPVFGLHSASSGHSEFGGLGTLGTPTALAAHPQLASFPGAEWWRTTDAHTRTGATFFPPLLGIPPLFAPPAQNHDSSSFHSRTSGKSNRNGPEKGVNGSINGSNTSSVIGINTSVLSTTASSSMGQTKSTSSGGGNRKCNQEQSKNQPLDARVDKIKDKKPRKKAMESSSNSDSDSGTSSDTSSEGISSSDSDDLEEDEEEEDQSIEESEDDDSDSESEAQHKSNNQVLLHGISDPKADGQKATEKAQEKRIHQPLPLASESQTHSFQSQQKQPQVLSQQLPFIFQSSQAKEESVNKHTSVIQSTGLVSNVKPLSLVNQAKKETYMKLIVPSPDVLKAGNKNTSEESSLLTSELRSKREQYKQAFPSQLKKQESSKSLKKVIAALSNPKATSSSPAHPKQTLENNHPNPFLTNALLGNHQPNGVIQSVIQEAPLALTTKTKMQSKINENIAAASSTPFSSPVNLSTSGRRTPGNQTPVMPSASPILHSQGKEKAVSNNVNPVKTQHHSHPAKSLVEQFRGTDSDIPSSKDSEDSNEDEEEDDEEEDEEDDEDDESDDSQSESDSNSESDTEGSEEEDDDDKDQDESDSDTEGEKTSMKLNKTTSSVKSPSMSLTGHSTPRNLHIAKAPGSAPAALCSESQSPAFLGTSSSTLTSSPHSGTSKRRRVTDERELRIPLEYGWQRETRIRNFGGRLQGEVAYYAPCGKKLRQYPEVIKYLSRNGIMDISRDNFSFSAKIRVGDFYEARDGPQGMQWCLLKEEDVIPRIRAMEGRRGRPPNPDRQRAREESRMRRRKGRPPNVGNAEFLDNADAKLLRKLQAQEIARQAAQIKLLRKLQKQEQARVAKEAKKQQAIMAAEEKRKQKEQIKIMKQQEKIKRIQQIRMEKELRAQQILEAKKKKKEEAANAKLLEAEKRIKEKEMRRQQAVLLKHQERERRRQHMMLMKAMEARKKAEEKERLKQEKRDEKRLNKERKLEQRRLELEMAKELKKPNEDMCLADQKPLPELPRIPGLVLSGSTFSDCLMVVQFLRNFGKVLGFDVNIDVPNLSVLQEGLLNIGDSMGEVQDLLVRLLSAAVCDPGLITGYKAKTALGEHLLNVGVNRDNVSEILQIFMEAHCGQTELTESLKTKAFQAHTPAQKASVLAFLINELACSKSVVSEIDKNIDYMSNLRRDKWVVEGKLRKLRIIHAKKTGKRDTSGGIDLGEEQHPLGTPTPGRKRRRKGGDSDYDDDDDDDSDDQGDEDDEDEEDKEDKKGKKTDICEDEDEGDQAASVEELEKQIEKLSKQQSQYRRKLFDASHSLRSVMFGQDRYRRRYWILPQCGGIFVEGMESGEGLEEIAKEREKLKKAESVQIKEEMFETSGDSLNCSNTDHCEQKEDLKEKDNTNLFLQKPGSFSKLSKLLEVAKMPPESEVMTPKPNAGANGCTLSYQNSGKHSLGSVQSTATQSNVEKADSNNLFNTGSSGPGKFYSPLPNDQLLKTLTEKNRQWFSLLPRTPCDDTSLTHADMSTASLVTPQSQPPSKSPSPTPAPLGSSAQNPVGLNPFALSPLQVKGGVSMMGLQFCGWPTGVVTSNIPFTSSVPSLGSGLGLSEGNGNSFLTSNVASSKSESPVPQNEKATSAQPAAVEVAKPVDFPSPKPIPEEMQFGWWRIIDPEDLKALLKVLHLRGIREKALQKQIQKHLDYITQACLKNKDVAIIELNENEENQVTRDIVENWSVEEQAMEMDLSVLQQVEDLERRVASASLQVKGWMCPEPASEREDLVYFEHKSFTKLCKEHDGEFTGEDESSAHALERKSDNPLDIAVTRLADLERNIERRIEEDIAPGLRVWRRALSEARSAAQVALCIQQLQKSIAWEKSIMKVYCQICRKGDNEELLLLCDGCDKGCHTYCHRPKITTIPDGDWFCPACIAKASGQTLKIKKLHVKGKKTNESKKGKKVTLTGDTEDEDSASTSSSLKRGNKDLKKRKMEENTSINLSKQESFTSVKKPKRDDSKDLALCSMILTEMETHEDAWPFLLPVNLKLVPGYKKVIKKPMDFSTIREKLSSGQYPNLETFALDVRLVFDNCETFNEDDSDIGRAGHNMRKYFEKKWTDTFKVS
Procedure, shortened: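 Compounds, titrated to a top concentration of 110 uM, were incubated 30 min at room temperature with preformed BAZ2B/acetyl-K14 H3 peptide complex (50 nM each). Proximity signal was measured by AlphaScreen after 20 min with beads.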
% is set by controls: 0 for no effect and ±100 for the full control effect; potency is the fitted concentration of half-maximal effect; tags give direction and shape of the fitted curve.
Note: nearly all actives have a fitted effect of over 60% in size.

| SMILES | Potency | activity change, negative = inhibition |
| --- | --- | --- |
| C[C@]12CC[C@@H]3c4ccc(O)cc4CC[C@H]3[C@@H]1CC[C@@H]2OC(=O)CCC(=O)O | inconclusive: 79.4 µM [inhibitor, single point] |  |
| COc1cc(/C=N/NC(=O)c2cc(O)cc(O)c2)ccc1OC(=O)c1ccccc1 | active: 11.2 µM |  |
| CCC1CCCCN1C(=O)COC(=O)c1cc(C)nc2ccccc12 (stereo not drawn) |  | inactive: -3.91% |
| COc1ccc(/C=N\NC(=O)c2ccc(F)cc2)cc1COc1ccccc1C(N)=O |  | inactive: -22.8% |
| O=C(CSc1nnc2[nH]c(=O)cc(-c3ccccc3)n12)Nc1cc(C(F)(F)F)ccc1Cl |  | inactive: 3.97% |
| Cc1nc2ccccc2c(C)c1C(=O)c1ccccc1 | inconclusive: 79.4 µM [inhibitor, partial curve] |  |
| O=C(CSc1nnc(-c2cccs2)n1-c1ccccc1)N1CCN(C(=O)c2ccco2)CC1 | inconclusive: 89.1 µM [inhibitor, single point] |  |
| S=C(Nc1cc(Cl)cc(Cl)c1)NC1CCN(Cc2ccccc2)CC1 | inconclusive: 70.8 µM [inhibitor, single point] |  |
| Cc1c(O)ccc(/C(Cc2ccc3ccccc3n2)=N\O)c1O | inconclusive: 89.1 µM [inhibitor, partial curve] |  |
| CC(C)(C)NC(=O)C(c1ccc(Cl)cc1)N(CCO)C(=O)c1snc(C(N)=O)c1N (stereo not drawn) | inconclusive: 89.1 µM [inhibitor, single point] |  |
| O=c1c(-c2c(O)cc(O)c3c(=O)cc(-c4ccc(O)cc4)oc23)c(-c2ccc(O)cc2)oc2cc(O)cc(O)c12 | active: 28.2 µM |  |
| COc1ccc([C@@H]2CC(=O)c3c(O)cc(O[C@@H]4O[C@H](CO[C@@H]5O[C@@H](C)[C@H](O)[C@@H](O)[C@H]5O)[C@@H](O)[C@H](O)[C@H]4O)cc3O2)cc1O | active: 50.1 µM |  |
| CC1CN(c2ccc([N+](=O)[O-])c(NCCOc3ccccc3)c2)CCN1 (stereo not drawn) | inconclusive: 50.1 µM [inhibitor, partial curve] |  |
| Cc1cccc(/C=C2\CCC(=C3SCCCS3)C2=O)c1 | active: 10 µM |  |
| Cc1cc(/C=C2\SC(=O)N(CC(=O)Nc3ccccc3F)C2=O)c(C)n1C | inconclusive: 89.1 µM [inhibitor, single point] |  |
| BrC(=C\c1ccccc1)/C=N/N1CCN(c2ccccn2)CC1 | active: 79.4 µM |  |
| CC(=O)N(CCC(Cc1ccccc1)c1ccco1)Cc1ccco1 (stereo not drawn) | inconclusive: 56.2 µM [inhibitor, partial curve] |  |
| COc1ccc2[nH]c3nc(SC(C)C)nnc3c2c1 | inconclusive: 89.1 µM [inhibitor, single point] |  |
